Experimental data reported in a collection of fitness landscapes (doi:10.1016/j.celrep.2020.107928).
Over roughly 81,000 sequences, “one-hybrid fitness for binding parS DNA” has its median near -0.17; the highest 2% begin near 0.51. The list shows a part of the results.

B1: Caulobacter ParB omega fusion; a variant is named by its letters at X, in order, B8GW30 (parent)
chain: MESVVVGEPGMSEGRRGLGRGLSALLGEVDAAPAQAPGEQLGGSREAPIEILQRNPDQPRRTFREEDLEDLSNSIREKGVLQPILVRPSPDTAGEYQIVAGERAWRAAQRAGLKTVPIMVRELDDLAVLEIGIIENVQRADLNVLEEALSYKVLMEKFERTQENIAQTIGKSXSHVANXMRLLXLPDEVQSYLVSGELTAXHARAIAAAADPVALAKQIIEGGLSVRETEALARKAPNLSAGKSKGGRPPRVKDTDTQALESDLSSVLGLDVSIDHRGSTGTLTITYATLEQLDDLCNRLTRGI

Variants of: B1
Assay: one-hybrid fitness for binding parS DNA (scaled: cognate 1, non-cognate 0); higher = stronger binding
Conditions: with parS DNA site
Procedure, shortened: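 Fitness here means the log change in variant-to-wild-type read ratio between plasmids sequenced before and after selection. That scale was set so cognate equals 1 and non-cognate equals 0. The selection was a bacterial one-hybrid screen of Caulobacter ParB libraries, four specificity codons randomised, in E. coli USO carrying a HIS3 reporter with the site 19 bp from the promoter, grown 48 hours at 37°C on M9-minus-histidine with 0.1 mM IPTG and 5 mM 3-AT.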

Row | Variant | one-hybrid fitness for binding parS DNA
1 | HSAA | ≤ 0.2
2 | FRST | ≤ 0.2
3 | TNVL | ≤ 0.2
4 | LTRF | ≤ 0.2
5 | FAAP | ≤ 0.2
6 | DPEW | ≤ 0.2
7 | ECDS | ≤ 0.2
8 | PYSG | ≤ 0.2
9 | TLIT | ≤ 0.2
10 | THHF | ≤ 0.2
11 | VFNR | ≤ 0.2
12 | HQNK | ≤ 0.2
13 | QVAF | ≤ 0.2
14 | ASHR | ≤ 0.2
15 | HTTE | ≤ 0.2
16 | LIIS | ≤ 0.2
17 | NKSI | ≤ 0.2
18 | NPID | ≤ 0.2
19 | IALI | ≤ 0.2
20 | EAAS | ≤ 0.2
21 | GREH | ≤ 0.2
22 | MFAG | ≤ 0.2
23 | PFYI | ≤ 0.2
24 | LWHM | ≤ 0.2
25 | DCYN | ≤ 0.2

Row | Variant | one-hybrid fitness for binding parS DNA
26 | VDDQ | ≤ 0.2
27 | NSMQ | ≤ 0.2
28 | LYYY | ≤ 0.2
29 | CPQV | ≤ 0.2
30 | GFRA | ≤ 0.2
31 | RLVP | ≤ 0.2
32 | SHGS | ≤ 0.2
33 | KTRH | ≤ 0.2
34 | LAIV | ≤ 0.2
35 | SYMR | ≤ 0.2
36 | HWQS | ≤ 0.2
37 | TRTG | ≤ 0.2
38 | CSPV | ≤ 0.2
39 | IPWE | ≤ 0.2
40 | HKWR | ≤ 0.2
41 | WCGY | ≤ 0.2
42 | SITL | ≤ 0.2
43 | RIEV | ≤ 0.2
44 | QMPS | ≤ 0.2
45 | IQGG | ≤ 0.2
46 | YYIG | ≤ 0.2
47 | RAQH | 0.211
48 | PQEI | ≤ 0.2
49 | ELSP | ≤ 0.2
50 | LWYP | ≤ 0.2

Row | Variant | one-hybrid fitness for binding parS DNA
51 | QFAM | ≤ 0.2
52 | QYIV | ≤ 0.2
53 | TQTT | ≤ 0.2
54 | PLCV | ≤ 0.2
55 | SMCY | ≤ 0.2
56 | LMTG | ≤ 0.2
57 | SFNW | ≤ 0.2
58 | GPCL | ≤ 0.2
59 | EMHS | ≤ 0.2
60 | TRTQ | ≤ 0.2
61 | RIAN | 0.432
62 | QARK | ≤ 0.2
63 | SCDR | ≤ 0.2
64 | DNHR | ≤ 0.2
65 | GMRM | ≤ 0.2
66 | NKTS | ≤ 0.2
67 | TYKV | ≤ 0.2
68 | RCVE | ≤ 0.2
69 | DRSI | ≤ 0.2
70 | VNCS | ≤ 0.2
71 | HNNL | ≤ 0.2
72 | FYKL | ≤ 0.2
73 | REPT | ≤ 0.2
74 | QCIV | ≤ 0.2
75 | DVFN | ≤ 0.2

Row | Variant | one-hybrid fitness for binding parS DNA
76 | WARM | ≤ 0.2
77 | QKSD | ≤ 0.2
78 | HSKE | ≤ 0.2
79 | IRES | ≤ 0.2
80 | FDIR | ≤ 0.2
81 | PWLK | ≤ 0.2
82 | VCQG | ≤ 0.2
83 | YATI | ≤ 0.2
84 | CLQR | ≤ 0.2
85 | MSNN | ≤ 0.2
86 | YTVW | ≤ 0.2
87 | LGNR | ≤ 0.2
88 | TPDW | ≤ 0.2
89 | KCTV | ≤ 0.2
90 | HIYA | ≤ 0.2
91 | HTGR | ≤ 0.2
92 | YACC | ≤ 0.2
93 | QRPP | ≤ 0.2
94 | FDRR | ≤ 0.2
95 | GLLR | ≤ 0.2
96 | CNSS | ≤ 0.2
97 | GYWG | ≤ 0.2
98 | MSLL | ≤ 0.2
99 | QQAR | ≤ 0.2
100 | WALC | ≤ 0.2

Row | Variant | one-hybrid fitness for binding parS DNA
101 | WGHS | ≤ 0.2
102 | QSKC | ≤ 0.2
103 | TNVR | ≤ 0.2
104 | ANKM | ≤ 0.2
105 | TRNF | ≤ 0.2
106 | EAYR | ≤ 0.2
107 | CATI | ≤ 0.2
108 | NMYI | ≤ 0.2
109 | RLMN | 0.459
110 | WRRA | ≤ 0.2
111 | ERKV | ≤ 0.2
112 | LKQR | ≤ 0.2
113 | MGTG | ≤ 0.2
114 | TCYK | ≤ 0.2
115 | MKFT | ≤ 0.2
116 | WTHP | ≤ 0.2
117 | DPTI | ≤ 0.2
118 | QPWY | ≤ 0.2
119 | DPVG | ≤ 0.2
120 | FRLR | ≤ 0.2
121 | RSWP | ≤ 0.2
122 | VTSK | ≤ 0.2
123 | NVKQ | 0.369
124 | VMGL | ≤ 0.2
125 | FGGC | ≤ 0.2

Row | Variant | one-hybrid fitness for binding parS DNA
126 | WSRG | ≤ 0.2
127 | LLRK | ≤ 0.2
128 | AYPD | ≤ 0.2
129 | TGTE | ≤ 0.2
130 | QTIH | ≤ 0.2
131 | GCAA | ≤ 0.2
132 | EAEG | ≤ 0.2
133 | CPGT | ≤ 0.2
134 | IFHS | ≤ 0.2
135 | DAQW | ≤ 0.2
136 | PPLD | ≤ 0.2
137 | IATE | ≤ 0.2
138 | DHHV | ≤ 0.2
139 | NCER | ≤ 0.2
140 | NNQE | ≤ 0.2
141 | LAIL | ≤ 0.2
142 | RMTT | 0.945
143 | QTEL | ≤ 0.2
144 | NPTC | ≤ 0.2
145 | PVCR | ≤ 0.2
146 | HINA | ≤ 0.2
147 | QLNA | ≤ 0.2
148 | IKTC | ≤ 0.2
149 | GNDS | ≤ 0.2
150 | ANHI | ≤ 0.2

Row | Variant | one-hybrid fitness for binding parS DNA
151 | THVT | ≤ 0.2
152 | CQTT | ≤ 0.2
153 | QELN | 0.3
154 | SVFV | ≤ 0.2
155 | VGSG | ≤ 0.2
156 | NKQR | ≤ 0.2
157 | AAVG | ≤ 0.2
158 | FSAL | ≤ 0.2
159 | PRWV | ≤ 0.2
160 | QVCK | ≤ 0.2
161 | KRAH | ≤ 0.2
162 | PHMH | ≤ 0.2
163 | LHKC | ≤ 0.2
164 | ALMW | ≤ 0.2
165 | EVWS | ≤ 0.2
166 | ISGM | ≤ 0.2
167 | WMML | ≤ 0.2
168 | RNVW | ≤ 0.2
169 | VDCG | ≤ 0.2
170 | LNTN | ≤ 0.2
171 | PCCG | ≤ 0.2
172 | TDVT | ≤ 0.2
173 | HRYK | ≤ 0.2
174 | NGKR | ≤ 0.2
175 | FSTS | ≤ 0.2

Row | Variant | one-hybrid fitness for binding parS DNA
176 | QQFW | ≤ 0.2
177 | VVSV | ≤ 0.2
178 | WTHS | ≤ 0.2
179 | KRAP | ≤ 0.2
180 | NHPW | ≤ 0.2
181 | REHC | ≤ 0.2
182 | MPRT | ≤ 0.2
183 | DPPW | ≤ 0.2
184 | RGHC | 0.59
185 | WTDW | ≤ 0.2
186 | QTCA | ≤ 0.2
187 | CCLR | ≤ 0.2
188 | HQGG | ≤ 0.2
189 | QYSA | ≤ 0.2
190 | RQHP | ≤ 0.2
191 | GPRP | ≤ 0.2
192 | HDMC | ≤ 0.2
193 | DYCS | ≤ 0.2
194 | QITK | ≤ 0.2
195 | FHPR | ≤ 0.2
